# According to the supplement of paper PMC9174493:
# Some of the results follow. Single values of this set are uncertain. Values with irradiation are relative to irradiated vehicle.
# What was measured:
# [1] = system: A549-Dual; assay: NF-kB reporter (SEAP) activity, viability-corrected, relative to vehicle (fold change vs vehicle); higher = more activation of STING-IRF / NF-kB immune response reporter; conditions: 10 µM
# [2] = system: A549-Dual; assay: ISRE reporter (Lucia luciferase) activity, viability-corrected, relative to vehicle (fold change vs vehicle); higher = more activation of STING-IRF / NF-kB immune response reporter; conditions: 10 µM
# 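Throughout, for NF-kB reporter (SEAP) activity, viability-corrected, relative to vehicle: viability correction based on the alamar blue assay, with concentrations leaving 10% survival or less dropped.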
Structure (SMILES),NF-kB reporter ([1]; irradiation: 8 Gy/4 fr),NF-kB reporter ([1]; irradiation: none),ISRE reporter ([2]; irradiation: 8 Gy/4 fr),ISRE reporter ([2]; irradiation: none)
CCC1(c2c[nH]cn2)Cc2ccccc2C1.Cl [Atipamezole hydrochloride],1.16,1.76,0.695,0.819
CC(C)(O)C(Cl)(Cl)Cl [Chlorobutanol],0.714,1.12,0.751,0.919
C=C1CCC2C(/C=C(\C)C(=O)C3(O)CC(C)C(O)C3C1O)C2(C)C (centres undefined) [Lathyrol],0.46,0.949,0.0833,0.368
Nc1nc(N)nc(N)n1 [Melamine],0.826,0.559,0.813,0.53
CCN(CC)CCOC(=O)C(O)(c1ccccc1)c1ccccc1.Cl [Benactyzine hydrochloride],0.537,0.75,0.476,0.48
COc1ccc2c(c1)[nH]c1c(C)nccc12 [Harmine],1.2,1.51,0.619,1.71
C=CCC(C(=O)NC(N)=O)C(C)C (centres undefined) [Apronal],0.865,1.7,0.625,0.835
O=[N+]([O-])OC1COC2C(O[N+](=O)[O-])COC12 (centres undefined) [Isosorbide dinitrate],1.1,0.564,0.959,0.5
COc1ccc(OC)c(C(O)C(C)N)c1.Cl (centres undefined) [Methoxamine HCl],0.539,0.611,0.429,0.529
CN1C2CCC1CC(OC(=O)C(CO)c1ccccc1)C2 (centres undefined) [Hyoscyamine],0.951,1.11,1.02,0.951
CCNCC.O=S(=O)(O)c1cc(O)ccc1O [Ethamsylate],0.937,0.868,0.811,0.461
